The values below come from article PMC7477951 (Structure (London, England : 1993), 2019).

For this test, the target named is T1, human HVEM (L39-C162) expressed in Drosophila S2 cells (human, UniProt Q92956 39-162).
T1 sequence (looked up): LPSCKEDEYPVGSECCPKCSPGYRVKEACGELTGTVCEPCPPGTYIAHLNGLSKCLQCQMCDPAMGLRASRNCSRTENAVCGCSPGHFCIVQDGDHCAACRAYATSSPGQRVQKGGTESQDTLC
Description: SEC. In general terms: SEC sorts molecules by how far they enter the pores of the column.

B1: human BTLA ([…]), refolded (domain or fragment)
chain: not shown
B1: the binding result is listed as “binds”.
